# These are yes or no findings as the source states them, for the method shown. Binding seen in cells or lysates may run through a third protein. Some results given as binding are weak or reduced against the parent protein; the word gives no strength. For part of these data: Tags and fused reporters may be left off the sequences shown.
# Amino acid sequences for entries named in this document (tags omitted).
# UniProt P39081: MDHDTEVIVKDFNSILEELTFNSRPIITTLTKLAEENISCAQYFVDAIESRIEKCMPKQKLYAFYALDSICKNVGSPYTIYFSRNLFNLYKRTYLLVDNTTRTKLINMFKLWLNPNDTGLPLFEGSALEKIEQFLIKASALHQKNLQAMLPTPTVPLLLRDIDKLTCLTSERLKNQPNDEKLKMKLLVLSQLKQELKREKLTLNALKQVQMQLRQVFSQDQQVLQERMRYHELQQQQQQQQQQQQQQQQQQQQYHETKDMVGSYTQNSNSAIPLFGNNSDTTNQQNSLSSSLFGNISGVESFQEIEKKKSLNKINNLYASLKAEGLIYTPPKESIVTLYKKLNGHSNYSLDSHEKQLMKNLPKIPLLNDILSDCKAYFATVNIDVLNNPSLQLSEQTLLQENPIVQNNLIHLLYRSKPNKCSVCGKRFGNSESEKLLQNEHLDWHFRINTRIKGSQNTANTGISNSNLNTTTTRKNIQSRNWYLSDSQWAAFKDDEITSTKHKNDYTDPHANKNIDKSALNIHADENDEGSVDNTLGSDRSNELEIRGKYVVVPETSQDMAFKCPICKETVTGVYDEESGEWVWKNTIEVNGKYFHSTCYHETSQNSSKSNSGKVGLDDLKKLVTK
# T1: GST-Ysh1 (yeast) (UniProt Q06224)
# T1 sequence: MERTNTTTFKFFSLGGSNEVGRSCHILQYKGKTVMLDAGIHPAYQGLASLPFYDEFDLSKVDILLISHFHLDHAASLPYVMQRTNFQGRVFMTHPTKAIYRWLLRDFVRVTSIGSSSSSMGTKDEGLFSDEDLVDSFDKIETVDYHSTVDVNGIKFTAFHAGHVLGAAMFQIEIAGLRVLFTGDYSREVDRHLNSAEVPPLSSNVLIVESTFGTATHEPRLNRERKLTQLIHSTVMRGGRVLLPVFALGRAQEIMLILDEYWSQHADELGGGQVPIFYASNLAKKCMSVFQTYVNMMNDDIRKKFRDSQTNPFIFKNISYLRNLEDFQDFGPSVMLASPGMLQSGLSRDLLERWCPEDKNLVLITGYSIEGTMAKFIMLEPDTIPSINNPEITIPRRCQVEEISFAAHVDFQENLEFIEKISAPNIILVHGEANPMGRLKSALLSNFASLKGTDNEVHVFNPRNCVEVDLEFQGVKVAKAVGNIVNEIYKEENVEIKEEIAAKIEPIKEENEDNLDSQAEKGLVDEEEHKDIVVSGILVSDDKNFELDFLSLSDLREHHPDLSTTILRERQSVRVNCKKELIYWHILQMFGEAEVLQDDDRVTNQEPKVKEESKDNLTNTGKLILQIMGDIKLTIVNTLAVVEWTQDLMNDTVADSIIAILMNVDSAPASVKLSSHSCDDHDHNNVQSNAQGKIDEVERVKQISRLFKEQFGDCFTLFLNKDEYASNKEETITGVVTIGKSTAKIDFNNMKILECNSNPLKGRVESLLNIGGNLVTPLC
# T2: GST-Rna14 (yeast) (UniProt P25298)
# T2 sequence: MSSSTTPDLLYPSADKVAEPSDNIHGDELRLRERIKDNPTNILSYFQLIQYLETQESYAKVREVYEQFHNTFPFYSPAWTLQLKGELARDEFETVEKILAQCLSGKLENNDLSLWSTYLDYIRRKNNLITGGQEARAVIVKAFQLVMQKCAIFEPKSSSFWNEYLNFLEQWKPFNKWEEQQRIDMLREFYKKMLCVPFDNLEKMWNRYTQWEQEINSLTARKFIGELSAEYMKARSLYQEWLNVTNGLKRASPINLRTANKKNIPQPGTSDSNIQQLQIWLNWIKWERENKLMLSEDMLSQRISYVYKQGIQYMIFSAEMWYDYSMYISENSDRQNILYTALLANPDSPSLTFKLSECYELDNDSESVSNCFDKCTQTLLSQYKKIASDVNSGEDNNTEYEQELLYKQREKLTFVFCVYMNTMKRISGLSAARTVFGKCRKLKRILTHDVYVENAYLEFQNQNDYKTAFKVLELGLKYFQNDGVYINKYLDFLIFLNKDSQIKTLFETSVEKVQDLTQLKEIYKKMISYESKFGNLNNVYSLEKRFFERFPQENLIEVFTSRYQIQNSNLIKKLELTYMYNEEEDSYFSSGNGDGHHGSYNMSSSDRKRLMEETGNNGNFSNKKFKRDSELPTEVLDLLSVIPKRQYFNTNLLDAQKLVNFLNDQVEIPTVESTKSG
# T3: GST-Rna15 (yeast) (UniProt P25299)
# T3 sequence: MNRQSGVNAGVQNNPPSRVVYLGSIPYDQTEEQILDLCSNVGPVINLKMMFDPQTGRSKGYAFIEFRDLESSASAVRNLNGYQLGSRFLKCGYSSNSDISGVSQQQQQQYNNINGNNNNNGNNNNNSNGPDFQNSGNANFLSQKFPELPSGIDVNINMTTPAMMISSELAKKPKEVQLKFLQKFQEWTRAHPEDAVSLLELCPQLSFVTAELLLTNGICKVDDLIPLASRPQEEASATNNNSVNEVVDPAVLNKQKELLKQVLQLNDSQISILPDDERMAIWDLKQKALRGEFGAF
# B1: Pta1, in vitro translated (protein, UniProt Q01329 1-785)
# chain: MSSAEMEQLLQAKTLAMHNNPTEMLPKVLETTASMYHNGNLSKLKLPLAKFFTQLVLDVVSMDSPIANTERPFIAAQYLPLLLAMAQSTADVLVYKNIVLIMCASYPLVLDLVAKTSNQEMFDQLCMLKKFVLSHWRTAYPLRATVDDETDVEQWLAQIDQNIGVKLATIKFISEVVLSQTKSPSGNEINSSTIPDNHPVLNKPALESEAKRLLDMLLNYLIEEQYMVSSVFIGIINSLSFVIKRRPQTTIRILSGLLRFNVDAKFPLEGKSDLNYKLSKRFVERAYKNFVQFGLKNQIITKSLSSGSGSSIYSKLTKISQTLHVIGEETKSKGILNFDPSKGNSKKTLSRQDKLKYISLWKRQLSALLSTLGVSTKTPTPVSAPATGSSTENMLDQLKILQKYTLNKASHQGNTFFNNSPKPISNTYSSVYSLMNSSNSNQDVTQLPNDILIKLSTEAILQMDSTKLITGLSIVASRYTDLMNTYINSVPSSSSSKRKSDDDDDGNDNEEVGNDGPTANSKKIKMETEPLAEEPEEPEDDDRMQKMLQEEESAQEISGDANKSTSAIKEIAPPFEPDSLTQDEKLKYLSKLTKKLFELSGRQDTTRAKSSSSSSILLDDDDSSSWLHVLIRLVTRGIEAQEASDLIREELLGFFIQDFEQRVSLIIEWLNEEWFFQTSLHQDPSNYKKWSLRVLESLGPFLENKHRRFFIRLMSELPSLQSDHLEALKPICLDPARSSLGFQTLKFLIMFRPPVQDTVRDLLHQLKQEDEGLHKQCDSLLDRLK
# modifications: [35S]-methionine-labelled
# B2: CD-CTD-Clp1 (amino acids 101-446), in vitro translated (domain or fragment, UniProt Q08685 101-445)
# chain: HTMKYIYNLHFMLEKIRMSNFEGPRVVIVGGSQTGKTSLSRTLCSYALKFNAYQPLYINLDPQQPIFTVPGCISATPISDILDAQLPTWGQSLTSGATLLHNKQPMVKNFGLERINENKDLYLECISQLGQVVGQRLHLDPQVRRSGCIVDTPSISQLDENLAELHHIIEKLNVNIMLVLCSETDPLWEKVKKTFGPELGNNNIFFIPKLDGVSAVDDVYKRSLQRTSIREYFYGSLDTALSPYAIGVDYEDLTIWKPSNVFDNEVGRVELFPVTITPSNLQHAIIAITFAERRADQATVIKSPILGFALITEVNEKRRKLRVLLPVPGRLPSKAMILTSYRYLE
# modifications: [35S]-methionine-labelled
# B3: CTD-Clp1 (amino acids 342-446), in vitro translated (domain or fragment, UniProt Q08685 342-445)
# chain: SPYAIGVDYEDLTIWKPSNVFDNEVGRVELFPVTITPSNLQHAIIAITFAERRADQATVIKSPILGFALITEVNEKRRKLRVLLPVPGRLPSKAMILTSYRYLE
# modifications: [35S]-methionine-labelled
# B4: NTD-CD-Clp1 (amino acids 1-341), in vitro translated (domain or fragment, UniProt Q08685 1-341)
# chain: MASLPGIDEHTTSEELITGDNEWHKLVIPKGSDWQIDLKAEGKLIVKVNSGIVEIFGTELAVDDEYTFQNWKFPIYAVEETELLWKCPDLTTNTITVKPNHTMKYIYNLHFMLEKIRMSNFEGPRVVIVGGSQTGKTSLSRTLCSYALKFNAYQPLYINLDPQQPIFTVPGCISATPISDILDAQLPTWGQSLTSGATLLHNKQPMVKNFGLERINENKDLYLECISQLGQVVGQRLHLDPQVRRSGCIVDTPSISQLDENLAELHHIIEKLNVNIMLVLCSETDPLWEKVKKTFGPELGNNNIFFIPKLDGVSAVDDVYKRSLQRTSIREYFYGSLDTAL
# modifications: [35S]-methionine-labelled
# B5: NTD-Clp1 (amino acids 1-100), in vitro translated (domain or fragment, UniProt Q08685 1-100)
# chain: MASLPGIDEHTTSEELITGDNEWHKLVIPKGSDWQIDLKAEGKLIVKVNSGIVEIFGTELAVDDEYTFQNWKFPIYAVEETELLWKCPDLTTNTITVKPN
# modifications: [35S]-methionine-labelled
# B6: CD-Clp1 (amino acids 101-341), in vitro translated (domain or fragment, UniProt Q08685 101-341)
# chain: HTMKYIYNLHFMLEKIRMSNFEGPRVVIVGGSQTGKTSLSRTLCSYALKFNAYQPLYINLDPQQPIFTVPGCISATPISDILDAQLPTWGQSLTSGATLLHNKQPMVKNFGLERINENKDLYLECISQLGQVVGQRLHLDPQVRRSGCIVDTPSISQLDENLAELHHIIEKLNVNIMLVLCSETDPLWEKVKKTFGPELGNNNIFFIPKLDGVSAVDDVYKRSLQRTSIREYFYGSLDTAL
# modifications: [35S]-methionine-labelled
# Biological target: T1, GST-Ysh1 (yeast)
# Assay: pull-down; GST-Ysh1 with in vitro translated [35S]-labelled proteins; all binding reactions contained labelled Pta1 and increasing concentrations of wild-type or mutant Clp1 (Fig. 2D); only the target purified
row,binding,Binder
1,binds,B1

# Biological target: GST-Pcf11 (yeast) (UniProt P39081)
# Assay: pull-down; GST-fusion protein (100 ng) incubated with in vitro translated [35S]-methionine-labelled protein for 1 h at room temperature; bound in 860 µl to glutathione sepharose equilibrated in PBS, 0.01% NP-40, 100 µg BSA; washed three times with IPP150 (20 mM Tris-HCl pH 8.0, 150 mM KCl, 0.01% NP-40); SDS-PAGE, autoradiography (Fig. 2B, 2C); only the target purified
row,binding,Binder
1,binds weakly,B2
2,binds weakly,B4
3,binds weakly,B6

row,Binder,binding
1,B3,no binding (tested: 100 ng GST-fusion protein in 860 µl)
2,B5,no binding (tested: 100 ng GST-fusion protein in 860 µl)

# Biological target: T2, GST-Rna14 (yeast)
# Assay: as above
row,binding,Binder
1,binds,B2
2,binds,B4
3,binds,B6

row,Binder,binding
1,B3,binds
2,B5,no binding (tested: 100 ng GST-fusion protein in 860 µl)

# Biological target: T1, GST-Ysh1 (yeast)
# Assay: as above
row,binding,Binder
1,binds,B2
2,binds,B4
3,binds,B6

row,Binder,binding
1,B3,binds
2,B5,no binding (tested: 100 ng GST-fusion protein in 860 µl)

# Biological target: T3, GST-Rna15 (yeast)
# Assay: as above
row,Binder,binding
1,B2,no binding (tested: 100 ng GST-fusion protein in 860 µl)
2,B3,binds
3,B4,no binding (tested: 100 ng GST-fusion protein in 860 µl)
4,B5,no binding (tested: 100 ng GST-fusion protein in 860 µl)
5,B6,no binding (tested: 100 ng GST-fusion protein in 860 µl)
